Results from ChEMBL document CHEMBL4888484, “Replenishing the malaria drug discovery pipeline: Screening and hit evaluation of the MMV Hit Generation Library 1 (HGL1) against asexual blood stage Plasmodium falciparum ,using a nano luciferase reporter read-out” (2022).
Screen size: about 150,000 compounds; about 540 (0.36%) showed an effect of 50% or more. Some of the results follow.

tested on: Plasmodium falciparum; experiment: Primary screen in NF54 nanoGlo assay, in single point, at 2uM, 72h; a lower Z score goes with more inhibition; type: functional, Erythrocyte; settings: timepoint 72 hour

Row | Compound | % Inhibition [%] | Z score
1 | CC(=O)N[C@H]1CCN(C(=O)c2cnn(C3CC3)c2)C1 | -4 | 0.49
2 | CN(C)CCN1CCN(c2ccc(Cl)cn2)C[C@@H](O)C1 | -15 | 2.85
3 | CCCCc1nc(-c2nccn2[C@H]2COC[C@@H]2OCC)c[nH]1 | -2 | 0.31
4 | O=C(c1cc2c(F)cccc2s1)N1CCc2ccccc2C1 | 0 | 0.08
5 | CCOc1ccc(S(=O)(=O)N2CCC(c3c(C)n(Cc4ccc(Cl)cc4)c4ccccc34)CC2)cc1 | 13 | -1.82
6 | Cc1cc(NC(=O)NCC2(NC(=O)OC(C)(C)C)CCCCCC2)no1 | 2 | -0.27
7 | O=C1[C@@H]2Cc3c([nH]c4ccccc34)C(c3ccc(Cl)cc3)N2C(=O)CN1CCc1ccc(F)cc1 (stereo partly drawn) | 10 | -1.48
8 | O=C(CN1CCC[C@H]1c1ccc(F)c(F)c1)N1CCC1 | -10 | 1.39
9 | CCOC[C@@H](O)CNc1ncccc1F | -1 | 0.19
10 | CC(C)n1c(=O)n(CC(=O)NC2CCCC2)c2cc(S(=O)(=O)N3CCCC3)ccc21 | 12 | -1.41
11 | O=C(NCC[C@H]1CCOC1)c1cncc(Cl)c1 | 2 | -0.32
12 | O=C(Cc1ccccc1)Nc1ccc(N2CCN(Cc3ccncc3)CC2)nc1 | -18 | 1.75
13 | CC(C)N1C[C@@]2(CCCN(C(=O)c3cccn4cnnc34)C2)CCC1=O | -7 | 1.21
14 | C[C@H](C(=O)Nc1c(F)cccc1F)C1CCN(C(=O)Nc2ccc(Cl)cc2)CC1 | -11 | 2.04
15 | CC(C)C(=O)N1CCC(F)(F)[C@@H](C)C1 | 1 | -0.25
16 | CC(=O)N1C[C@H](NC(=O)C2(C)CCCC2)[C@@H](C2CC2)C1 | -4 | 0.73
17 | CCO[C@H]1CCN(C(=O)Nc2ccc(C(=O)NC)nn2)C1 | -1 | 0.2
18 | Cc1cc(C)c2[nH]c(C(=O)N(C)[C@H](c3ccccn3)C3CC3)c(C)c2c1 | 3 | -0.48
19 | CCC(O)C1CCCCN1CC(=O)N(C)C (stereo not drawn) | -1 | 0.14
20 | O=C(NC1CCCCC1)c1ccc(CCc2nc3ccccc3[nH]2)cc1 | 15 | -1.76
21 | COc1ccc(-n2ncc3c2NC(=O)C[C@]32C(=O)N(CC(N)=O)c3ccc(C)cc32)cc1 | -1 | 0.12

Row | Compound | % Inhibition [%] | Z score
22 | COCCN1C[C@@H](Cc2ccc3c(c2)OCO3)CC1=O | -1 | 0.17
23 | CC(C)(C)c1nnc(NCCCOCC2CCOCC2)s1 | -2 | 0.31
24 | CCn1ccc2c(cc(C(=O)Nc3cccc(Cl)c3)n2C)c1=O | -6 | 0.58
25 | Cn1nnc2c(N[C@@H]3CC=C(c4ccc(F)cc4)CC3)ncnc21 | -9 | 1.7
26 | Cn1cncc1[C@H]1[C@H](NC(=O)[C@H]2CC2(C)C)CCC(=O)N1C1CC1 | 2 | -0.33
27 | COc1cccc(C(=O)NC[C@](C)(O)C2CCCC2)c1 | -3 | 0.36
28 | Cc1cc2c(N3CCCC3CC(O)c3ccc(F)cc3)nccn2n1 (stereo not drawn) | -11 | 1.44
29 | CCCn1cnnc1CN(C)C(=O)NCC1(N2CCN(C)CC2)CCCC1 | -2 | 0.4
30 | O=C(CN1C(=O)[C@@H]2CCCN2C(=O)c2ccc(F)cc21)Nc1ccccc1F | 6 | -0.92
31 | CC(=O)N1CC(NC(=O)c2cscc2-c2ccccc2)C1 | -13 | 1.67
32 | CN(C)c1cccc(C(=O)N2C[C@H]3CC[C@@H](C2)N(C)C3)c1 | -21 | 2.22
33 | Cc1nn(C)c(Cl)c1C(=O)N[C@@H](C)CCc1ccccc1 | -4 | 0.62
34 | CC(C)(C)S(=O)(=O)N1CCC(NC(=O)N2CC(F)C2)CC1 | -8 | 1.77
35 | Cc1cc(N2CCN(S(=O)(=O)c3cccs3)CC2)nc(N2CCOCC2)n1 | -14 | 2.13
36 | Cc1nc(-c2c(-c3ccccc3)ncn2C)c[nH]1 | -8 | 1.07
37 | CN(C)C(=O)CO[C@H]1COCC[C@@H]1NC(=O)c1cc(C(F)(F)F)n[nH]1 | -8 | 1.36
38 | O=C(Nc1ccc2c(c1)OCO2)Nc1cnn(C[C@H]2COc3ccccc3O2)c1 | 13 | -1.66
39 | CCCn1c(=O)[nH]c(=O)c2c1nc(-c1ccc(-c3ccccc3)cc1)n2CCOC | 13 | -1.57
40 | COc1cc(NC(C)=O)ccc1NCc1sccc1Cl | -9 | 1.44
41 | Cc1cc(C)c(-c2ccc(C(=O)NC3CCOCC3)nc2)c(C)c1 | -4 | 0.64
42 | CCOC1CCN(C(=O)[C@@H]2CC[C@H](NC(=O)c3nc(C)c[nH]3)C2)CC1 | 1 | -0.14

Row | Compound | % Inhibition [%] | Z score
43 | O=C(NCc1cccc(Cl)c1)[C@H]1CCCN(c2nc3ccccc3n(Cc3ccccc3)c2=O)C1 | -5 | 0.81
44 | Cc1nc(N)nc(C)c1CC(=O)N(C)Cc1cccc2cnccc12 | 6 | -0.72
45 | Cc1cnc(COC(=O)c2cc(F)c(F)cc2Cl)o1 | -5 | 0.45
46 | CCc1nc([C@H](C)NCC(=O)Nc2ccc(Cl)cn2)cs1 | -11 | 1.15
47 | C[C@H](NC(=O)N(C)CCN1CCCC1)c1ccc(O)cc1 | -10 | 1.31
48 | O=C1CC[C@@H]2CN(Cc3c(F)cccc3F)CC[C@@H]2N1CC1CCCCC1 | -10 | 1.23
49 | Cn1c(C(=O)N2CCOCC2)cc2occc21 | -5 | 0.74
50 | O=C(CCc1cc2n(n1)CCCNC2)Nc1cccc2c1CCC2 | -5 | 0.7
51 | Cc1cc(O)cc(=O)n1C[C@@H]1OCCc2ccccc21 | -10 | 1.56
52 | N#CCCOC1(C#CCN2CCCC2)CCCCC1 | 11 | -1.49
53 | CC1(C)OCC[C@@H]1CNc1ncnc2c1ncn2C1CC1 | -6 | 0.97
54 | COc1ccccc1CC(=O)N1CC(N2C(=O)COC2=O)C1 | -7 | 0.79
55 | CO[C@](C)(C(=O)NCc1csc(=O)[nH]1)C1CC1 | -1 | 0.16
56 | Cc1ccc(Cl)cc1N(CCCC(=O)NC[C@H]1CCCO1)S(C)(=O)=O | -20 | 2.31
57 | O=C1CN(C(=O)Nc2ccc(-c3ccccn3)cc2)CCN1 | 14 | -1.86
58 | Cc1ccoc1C(=O)N[C@@H]1CCC[C@@H]1F | 1 | -0.07
59 | Fc1cccc(-c2n[nH]c3c2CN(c2ccnc4[nH]ncc24)CC3)c1 | -6 | 0.7
60 | COc1ccc(CN(C)C(=O)[C@H](C)c2ccnn2C)cc1Cl | -12 | 1.49
61 | CC(C)[C@H](Nc1ncc(Cl)cn1)c1nnc2n1CCC2 | -4 | 0.52
62 | O=C(Nc1ccccc1)OCC1(COC(=O)Nc2ccccc2)COC(c2ccc(Cl)cc2Cl)=N1 | -18 | 2.36
63 | COC(=O)[C@@]1(C)N[C@@H](c2cccnc2N2CCOCC2)[C@H]2C(=O)N(C)C(=O)[C@H]21 | 4 | -0.57

Row | Compound | % Inhibition [%] | Z score
64 | O=C(c1n[nH]c2ccccc12)N1CC[C@H]2[C@H](CCC(=O)N2CCCO)C1 | -9 | 1.52
65 | COc1ccc(C(NC(=O)N2CCC[C@H]2c2nc3ccccc3[nH]2)C(C)C)cc1OC (stereo partly drawn) | 11 | -1.79
66 | Cc1cccc(C)c1CN1CC[C@@]2(C1)C(=O)N(CC(N)=O)c1ccccc12 | 2 | -0.3
67 | CC(Oc1cccnc1)C(=O)N1CCNCC1C (stereo not drawn) | -4 | 0.55
68 | COc1cccnc1-c1cccc(C(=O)N2CCC(F)(F)CC2)c1 | -21 | 2.9
69 | c1onc2c1CN(Cc1nc3c(s1)CCCC3)CC2 | -9 | 0.93
70 | CCCN1CCN(Cc2cccc3c(C)cccc23)[C@H]2CS(=O)(=O)C[C@H]21 | 0 | 0.01
71 | O=C(CN1CCC(O)CC1)N1CC[C@]23C(=O)N(Cc4cn(nn4)CCCOc4cccc(c4)[C@@H]12)c1ccccc13 | -17 | 2.17
72 | Cc1cc(NCc2cccnc2N2CCN(c3ccccc3C)CC2)nc(N)n1 | -7 | 0.89
73 | Cc1ncc(C(=O)NCc2nc(C(C)(C)C)no2)cn1 | -12 | 1.54
74 | CC(C)(C)CN(Cc1ccccc1)C(=O)CCS(C)(=O)=O | 9 | -1.65
75 | COC(=O)CN(C)C(=O)Cc1ccc(Cl)cc1Cl | -6 | 0.55
76 | C[C@@H](CNC(=O)c1cc2c(s1)CCOC2)c1nncn1C | -5 | 0.79
77 | CC(C)N(C)S(=O)(=O)N1CCC(CNC(=O)CCCn2cccn2)CC1 | 2 | -0.27
78 | CCCNC(=O)c1nc(C)c(C)nc1C(=O)Nc1ccc(Cl)cc1 | -34 | 3.97
79 | CC(C)N(C)CC(=O)NCC1(C)CCCCC1O (stereo not drawn) | -8 | 1.1
80 | C#CCCC1(CCC(=O)N2CC[C@@H](Oc3cccc(Cl)c3)C2)N=N1 | -10 | 1.21
81 | Cc1ccc(C(=O)N2C[C@@H]3CC[C@H]2CN(CC(=O)N(C)C)C3)c(F)c1 | -2 | 0.39
82 | O=C(CCc1ccsc1)N[C@H]1CNCCC1(F)F | -10 | 1.75
83 | CC(C)(C)c1ccc(-c2noc(CCC(=O)NC[C@H]3CCCO3)n2)cc1 | -8 | 0.93
84 | NC(=O)[C@@H]1C[C@H](Oc2ccccc2)CN1S(=O)(=O)c1cccnc1 | -7 | 0.96
